This note sets out measurements from publication PMC4336329 (PLoS ONE, 2015).

Out of some 310,000 compounds screened, about 14,000 (4.5%) showed an effect of 50% or more. Effects have a minus sign here. This is one part of the list.
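Note: peak tail current of the secondary pulse compared with the same well before compound.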

In the experiment the target is human ether-à-go-go-related gene (hERG) potassium channel (human, UniProt Q12809). The experiment is described as follows: primary screen, population patch clamp on CHO cells stably expressing hERG.
Sequence of human ether-à-go-go-related gene (hERG) potassium channel (Q12809 whole entry, looked up): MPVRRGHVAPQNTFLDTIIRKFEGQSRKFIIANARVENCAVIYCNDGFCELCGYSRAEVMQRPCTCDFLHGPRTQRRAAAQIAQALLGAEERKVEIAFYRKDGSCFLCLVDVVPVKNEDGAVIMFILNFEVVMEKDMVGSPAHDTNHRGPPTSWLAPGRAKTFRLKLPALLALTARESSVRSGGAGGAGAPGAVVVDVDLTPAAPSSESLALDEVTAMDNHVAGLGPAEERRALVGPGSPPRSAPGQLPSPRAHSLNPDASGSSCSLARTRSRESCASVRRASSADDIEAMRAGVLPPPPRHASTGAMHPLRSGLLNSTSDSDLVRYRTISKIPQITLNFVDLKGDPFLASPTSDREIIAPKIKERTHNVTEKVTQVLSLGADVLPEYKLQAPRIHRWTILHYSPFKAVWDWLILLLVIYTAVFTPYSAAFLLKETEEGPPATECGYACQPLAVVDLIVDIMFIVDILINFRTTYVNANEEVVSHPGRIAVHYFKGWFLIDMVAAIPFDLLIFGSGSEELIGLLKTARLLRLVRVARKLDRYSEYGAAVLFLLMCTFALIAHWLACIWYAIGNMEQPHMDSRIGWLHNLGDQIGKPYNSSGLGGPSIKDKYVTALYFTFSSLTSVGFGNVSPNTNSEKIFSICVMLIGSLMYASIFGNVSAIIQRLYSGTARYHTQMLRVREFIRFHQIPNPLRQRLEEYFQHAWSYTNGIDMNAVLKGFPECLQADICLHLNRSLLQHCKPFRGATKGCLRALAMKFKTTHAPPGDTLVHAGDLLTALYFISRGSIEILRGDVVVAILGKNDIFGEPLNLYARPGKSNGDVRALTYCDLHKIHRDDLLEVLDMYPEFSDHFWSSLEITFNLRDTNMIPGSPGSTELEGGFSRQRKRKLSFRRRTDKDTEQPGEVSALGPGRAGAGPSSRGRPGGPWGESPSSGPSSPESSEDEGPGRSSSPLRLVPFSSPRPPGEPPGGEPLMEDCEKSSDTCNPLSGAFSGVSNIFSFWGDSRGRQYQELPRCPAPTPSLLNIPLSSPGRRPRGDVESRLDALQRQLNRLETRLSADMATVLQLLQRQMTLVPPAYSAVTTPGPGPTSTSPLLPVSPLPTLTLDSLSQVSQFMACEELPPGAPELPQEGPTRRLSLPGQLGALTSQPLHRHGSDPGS
Turning to `O=C(NCc1ccc[n+](CCCCS(=O)(=O)[O-])c1)c1ccc(OC(F)F)cc1`, the “hERG current change (%, negative = inhibition) at 10uM” value is given as 14.9%.

`CC(=O)Nc1ccc(NC(=O)C(C)n2c3ccccc3c3nc(=O)cc(C)n32)cc1` (stereo not drawn): the “hERG current change (%, negative = inhibition) at 10uM” value amounted to 5.15%.

Regarding `COc1ccc(COC(=O)N/N=C(\C)CC(=O)NCc2ccc(Cl)cc2)cc1`, the “hERG current change (%, negative = inhibition) at 10uM” value was 4.1%. Then `COC(=O)CC(NC(=O)c1ccco1)c1cccc2ccccc12` (stereo not drawn), with -23.4%; and `Cc1nnc(NC(=O)c2ccccc2Oc2ccccc2)s1`, with 4.92%. For `O=C(COC(=O)C12CC3CC(CC(O)(C3)C1)C2)NC(=O)NCc1ccco1`, the “hERG current change (%, negative = inhibition) at 10uM” value was 1.49%. For `CC(C)CCSc1nc(N)c(C#N)cc1C#N`, the “hERG current change (%, negative = inhibition) at 10uM” value is on record as -7.04%. To `CC(=O)Nc1ccc(S(=O)(=O)NCc2cn3c(C)csc3n2)cc1` belongs 4.17%; to `Oc1ccc(Br)cc1CNc1cccc2cccnc12`, 18.5%.

In the case of `COc1cc(/C(C)=N\NC(=O)CSc2nc3ccccc3n2C)ccc1O`, the “hERG current change (%, negative = inhibition) at 10uM” value was determined as 12.2%. Consider `Cc1nc2ncnn2c(C)c1Cc1c(Cl)cccc1Cl`, for which the “hERG current change (%, negative = inhibition) at 10uM” value is -8.13%. Then `Cc1cccc(NS(=O)(=O)c2ccc3[nH]c(=O)cc(C(=O)OC(C)C(=O)Nc4ccc([N+](=O)[O-])cc4)c3c2)c1` (stereo not drawn), with 16.3%. As to `CCCNC(=O)CSc1nc2[nH]ncc2c(=O)[nH]1`, the “hERG current change (%, negative = inhibition) at 10uM” value is listed as 11.6%. With `Cc1ccc([C@@H]2[C@@H]3C(=O)N(C)C(=O)[C@@H]3[C@]3(C)C(=O)N(Cc4ccccn4)CC(=O)N23)o1`, the “hERG current change (%, negative = inhibition) at 10uM” value turned out to be 9.41%. To `Cc1cccc(Cn2ccc(-c3ccc(Cl)cc3)c(C#N)c2=O)c1` belongs 5.04%; to `O=C(COc1ccccc1Cl)NC(=S)Nc1ccccc1N1CCCC1`, 18.4%. Then `O=C(C1CCC1)N1CCN(c2cccc(C(F)(F)F)c2)CC1`, with -7.07%. To `O=C1CC2(CCN(C(=O)c3cccc(Br)c3)CC2)Oc2ccccc21` belongs -85.5%. Take `O=C(N/C(=C\c1ccccc1)C(=O)N1CCCCCC1)c1ccccc1`: the “hERG current change (%, negative = inhibition) at 10uM” value is 15.2%.

On to `Cc1sc2ncnc(NCC(c3ccco3)N3CCCC3)c2c1C` (stereo not drawn), for which the “hERG current change (%, negative = inhibition) at 10uM” value is -51.5%. Then `Cc1ccc(N2C(=O)N(CC(=O)Nc3c(C)cc(C)cc3Cl)C(=O)C2C)cc1` (stereo not drawn), with -10.6%; and `COc1ccc([C@H]2CC(=O)C=C(c3cccc(Cl)c3)C2)cc1OC`, with -20.4%; and `CCN(CC)c1ccc(C=Nc2ccc(C)cc2C)c(O)c1`, with -1.55%.

As for `Cc1ccc(S(=O)(=O)NCC(=O)N2CCOCC2)cc1`, the “hERG current change (%, negative = inhibition) at 10uM” value turned out to be 20.4%.
